These results are taken from PMC9935832, “Calcium-dependent protein kinase CDPK16 phosphorylates serine-856 of glutamate receptor-like GLR3.6 protein leading to salt-responsive root growth in Arabidopsis^#” (Frontiers in Plant Science, 2023).

Assay [1] has as its target T1, GLR3.6-YFP^N (Arabidopsis) (UniProt Q84W41).
T1 sequence: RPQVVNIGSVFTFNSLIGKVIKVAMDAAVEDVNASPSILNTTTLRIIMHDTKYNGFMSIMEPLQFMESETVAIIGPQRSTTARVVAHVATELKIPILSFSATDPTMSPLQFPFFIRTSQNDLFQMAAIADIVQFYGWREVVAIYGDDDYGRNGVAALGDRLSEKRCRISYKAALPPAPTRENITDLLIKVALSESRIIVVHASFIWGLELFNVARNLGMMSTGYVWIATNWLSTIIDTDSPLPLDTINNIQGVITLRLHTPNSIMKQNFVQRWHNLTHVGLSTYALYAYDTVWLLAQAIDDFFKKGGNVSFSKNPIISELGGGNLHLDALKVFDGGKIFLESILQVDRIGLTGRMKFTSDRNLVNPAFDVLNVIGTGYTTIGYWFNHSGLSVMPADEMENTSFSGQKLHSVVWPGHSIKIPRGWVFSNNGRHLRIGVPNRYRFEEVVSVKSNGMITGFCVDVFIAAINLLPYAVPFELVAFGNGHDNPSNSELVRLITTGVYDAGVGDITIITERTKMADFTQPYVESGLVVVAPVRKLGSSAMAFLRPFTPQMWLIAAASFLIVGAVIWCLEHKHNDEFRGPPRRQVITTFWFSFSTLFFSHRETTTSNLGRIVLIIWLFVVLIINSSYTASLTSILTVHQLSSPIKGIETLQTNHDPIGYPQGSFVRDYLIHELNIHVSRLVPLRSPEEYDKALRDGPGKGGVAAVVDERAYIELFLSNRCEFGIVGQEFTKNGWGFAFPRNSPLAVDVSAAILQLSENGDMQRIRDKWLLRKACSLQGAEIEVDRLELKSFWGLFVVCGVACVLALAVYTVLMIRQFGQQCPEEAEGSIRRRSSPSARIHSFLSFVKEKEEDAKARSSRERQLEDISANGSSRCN
As to the kind of experiment: split reporter; BiFC analysis of Supplementary Figure S4; host and constructs not given.

The target of assay [2] is T2, 14-3-3ω-YFP^C (Arabidopsis) (UniProt Q01525).
T2 sequence: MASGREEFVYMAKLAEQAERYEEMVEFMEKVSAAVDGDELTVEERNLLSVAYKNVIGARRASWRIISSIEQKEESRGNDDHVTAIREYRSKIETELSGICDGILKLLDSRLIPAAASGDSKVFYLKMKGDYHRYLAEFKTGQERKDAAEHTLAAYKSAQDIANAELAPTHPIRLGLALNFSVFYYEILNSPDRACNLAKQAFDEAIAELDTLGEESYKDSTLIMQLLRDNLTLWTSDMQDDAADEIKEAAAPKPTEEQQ
As to the kind of experiment: split reporter; BiFC in Arabidopsis protoplasts transfected with 10-20 μg plasmid DNA, 16-24 h at 22°C; reconstituted YFP seen by confocal microscopy.

Assay [3] has as its target T2, 14-3-3ω-YFP^C (Arabidopsis). The assay can be described thus: split reporter; BiFC in tobacco (Nicotiana benthamiana) leaf cells after agroinfiltration, 2-3 days at 22-24°C; YFP^N and YFP^C fusions; reconstituted YFP seen by confocal microscopy; PIP2a-mCherry as plasma membrane marker.
Another assay addresses T3, 6xHis-14-3-3ω (Arabidopsis, UniProt Q01525 1-259).
T3 construct: End of the His tag read from the printed name 6xHis-14-3-3ω; Vector map in Appendix 1B; construct as in Chen et al. (2018); also called recombinant 6xHis-14-3-3ω; source: E. coli BL21, purified (Ni-NTA agarose); not shown: 6xHis, N-terminal, kept
T3 sequence (looked up): T2 sequence
As to the kind of experiment: pull-down; 6xHis-14-3-3ω and GST-fused GLR3.6 peptides (50 μg each) mixed with Ni-NTA agarose, 4°C, 2 h; western blot with α-His and α-GST; both purified. A general note: A western blot detects proteins with antibodies after separation by electrophoresis.

Residue numbers refer to the chain shown, from its start. Numbers in names are those of the source. Results are given in words; binding and its absence hold for the method and conditions named. For some assays here: In cells and extracts the contact can be indirect. Some entries that bind do so weakly or less than the wild type. Sequences can lack the tags named with a protein.

B1: GLR3.7 (BiFC fusion) (protein, UniProt Q9SDQ4 26-921)
chain: QRPQLVNIGAVFAFDSVIGRAAKVALEAAVSDVNNDKSFLKETELRLLMEDSACNVFRGSFGAFELLEKEVVAMIGPISSSVAHTISDIAKGLHFPLVSFAATDPTLSALQFPFFLRTTPNDAHQMSALVDLINFYGWKEVISVYSDDELGRNGVSALDDELYKKRSRISYKVPLSVHSDEKFLTNALNKSKSIGPRVYILHFGPDPLLRIFDIAQKLQMMTHEYVWLATDWLSVTLDSLSDKGTLKRLEGVVGLRQHIPESVKMEHFTHKLQSNRSMNAYALHAYDTVWMIAHGIEELLNEGINITFSYSEKLLHARGTKLHLEKIKFFNSGELLLEKLLKVNFTGIAGQVQFGSGRNVIGCDYEIINVNKTDVHTVGFWSKNGGFSVVAPKTRHSQKKTSFVSDEKLGDITWPGGGREKPRGWVIADSADPLKIVVPRRVSFVEFVTEEKNSSHRIQGFCIDVFIEALKFVPYSVPYIFEPFGNGHSSPNYNHLIQMVTDGVYDAAVGDIAIVPSRSKLVDFSQPYASTGLVVVIPANDDNATWIFLRPFTSRLWCVVLVSFLVIAVVIWILEHRINEDFRGPPRRQLSTMLLFSFSTLFKRNQEDTISNLARLVMIVWLFLLMVLTASYTANLTSILTVQQLPSAITGIDSLRASEVPIGYQAGTFTLEYLTYSLGMARSRLVPLDSTEEYEKALKLGPTNWGGVAAIVDELPYIELFLAERTGFKIVGEPFMHRGWGFAFKRDSPLAIDMSTAILKLSETRKLQEIRKKWLCKTNCAGKSNWNPEPNQLHLKSFKGLYLVCIAITVSAFLVFVLRMIRQFVRYRRMERTSSMPRASWSASPTLRLRELVFDFVEFVDEKEEAIKRMFRRSDDSNNNPSHVGEVQADTEVPRN
B1: the binding entry in assay [1] is “binds”.

B2: GLR3.6-YFP^N (protein, UniProt Q84W41 26-903)
chain: T1 sequence
With B2, the binding result in assay [1], in assay [2] and in assay [3] was “binds” in each case.

B3: GLR3.6-S862A-YFP^N (protein, UniProt Q84W41 26-903)
chain: T1 sequence with S837A
For the molecule B3, in assay [3], the binding entry is given as “binds”.

B4: GLR3.6-S861A-YFP^N (protein, UniProt Q84W41 26-903)
chain: T1 sequence with S836A
As for B4, in assay [3], the binding result is recorded as “binds”.

B5: GLR3.6-S856A-YFP^N (protein, UniProt Q84W41 26-903)
chain: T1 sequence with S831A
Consider B5, for which the binding entry in assay [2] and in assay [3] was “binds” throughout.

B6: GLR3.6-S861/862A-YFP^N (protein, UniProt Q84W41 26-903)
chain: T1 sequence with S836A, S837A
As to B6, the binding entry in assay [2] and in assay [3] was “no binding” throughout.

B7: GST-GLR3.6-S861/862A (GST-fused peptide fragment) (peptide, UniProt Q84W41 854-865)
chain: EGSIRRRAAPSA
As for B7, the binding result with 6xHis-14-3-3ω is given as “no binding (tested: 50 μg each)”.
